Results filed as inconclusive are left out. Calls come from the whole dose curve; as a rule, active = well fitted curve in the direction sought with a large enough effect; inconclusive = small, poorly fitted or top-dose-only effect, or another doubt; inactive = no such curve, though single readings can be large; an effect the other way counts as inactive or inconclusive. Some compounds were tested as several samples or in several runs, with calls that do not always agree. A number of entries come with more than one value. The other results are left out here. There may be further records. Values given together repeat one measurement in other runs, samples, wells, individuals or studies. Brackets tell where a record comes from. A, B and so on number the origins entry by entry.
Experiment: qHTS of pediatric cancer cell lines to identify multiple opportunities for drug repurposing: Primary screen for SK-N-MC cells (AID 1347093)
Settings: SK-N-MC viability, CellTiter-Glo luminescence, 48 h; series mostly up to 46 µM
Potency is the fitted concentration of half-maximal effect.

Compound | Potency
COc1ccc(C(=O)CC(=O)c2ccc(C(C)(C)C)cc2)cc1 | inactive [sample A] and active: 935 nM [sample B]
Cc1ccnc2c1NC(=O)c1cccnc1N2C1CC1 | inactive [sample A] and active: 6.62 µM [sample B]
O=C(NCC1CN(c2ccc(N3CCOCC3=O)cc2)C(=O)O1)c1ccc(Cl)s1 (stereo not given) | inactive [sample A] and active: 3.72 µM [sample B]
COc1cnc(NS(=O)(=O)c2ccc(N)cc2)nc1 | inactive [sample A] and active: 5.9 µM [sample B]
O=S(=O)(O)CCS | active: 2.64 µM [sample A] and inactive [sample B]
COc1ccc2c(c1)c(CC(=O)OCC(=O)O)c(C)n2C(=O)c1ccc(Cl)cc1 | inactive [sample A] and active: 18.7 µM [sample B]

Experiment: qHTS of pediatric cancer cell lines to identify multiple opportunities for drug repurposing: Primary screen for BT-37 cells (AID 1347094)
Settings: BT-37 viability, CellTiter-Glo luminescence, 48 h; series mostly up to 57.3 µM
How it was run: (§1)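 Cells plated at 500-1,000/well in growth medium, compounds added after 5 h. MIPE tested at 11 points (from 0.78 nM), NPC at 8 points (from 0.59 nM). CellTiter-Glo luminescence after 48 h; concentration-response curves from primary screen.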

Compound | Potency
CCOC(=O)[C@H](CCc1ccccc1)N[C@H]1CS[C@H](c2cccs2)CN(CC(=O)O)C1=O | active: 2.43 µM [sample A] and inactive [sample B]
COc1cc2c(Nc3ccc(Br)cc3F)ncnc2cc1OCC1CCN(C)CC1 | active: 9.68 µM [sample A] and inactive [sample B]
CC(C)Cn1cnc2c(N)nc3ccccc3c21 | inactive [sample A] and active: 13.7 µM [sample B]
CC(C(=O)O)c1ccc2c(c1)CC(=O)c1ccccc1S2 (stereo not given) | active: 2.17 µM [sample A] and inactive [sample B]
Nc1[nH]c(=O)ncc1F | inactive [sample A] and active: 24.3 µM [sample B]
COc1ccc(C(=O)CC(=O)c2ccc(C(C)(C)C)cc2)cc1 | inactive [sample A] and active: 1.37 µM [sample B]
Cc1nnc(NS(=O)(=O)c2ccc(N)cc2)s1 | inactive [sample A] and active: 6.11 µM [sample B]

Experiment: qHTS of pediatric cancer cell lines to identify multiple opportunities for drug repurposing: Primary screen for NB-EBc1 cells (AID 1347095)
Settings: NB-EBc1 neuroblastoma viability, CellTiter-Glo luminescence, 48 h; series mostly up to 46 µM

Compound | Potency
CCOC(=O)[C@H](CCc1ccccc1)N[C@H]1CS[C@H](c2cccs2)CN(CC(=O)O)C1=O | active: 1.48 µM [sample A] and inactive [sample B]
Cn1nnc2c(C(N)=O)ncn2c1=O | inactive [sample A] and active: 18.7 µM [sample B]
CC(C)Cn1cnc2c(N)nc3ccccc3c21 | inactive [sample A] and active: 7.43 µM [sample B]
Nc1[nH]c(=O)ncc1F | inactive [sample A] and active: 8.33 µM [sample B]
COc1ccc(C(=O)CC(=O)c2ccc(C(C)(C)C)cc2)cc1 | inactive [sample A] and active: 833 nM [sample B]
Cc1nnc(NS(=O)(=O)c2ccc(N)cc2)s1 | inactive [sample A] and active: 13.2 µM [sample B]

Experiment: qHTS of pediatric cancer cell lines to identify multiple opportunities for drug repurposing: Primary screen for U-2 OS cells (AID 1347096); note: nearly all actives have a fitted effect of over 50% in size
Settings: U-2 OS viability, CellTiter-Glo luminescence, 48 h; series mostly up to 46 µM
How it was run: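 Viability after 48 h compound treatment at 37C, 500-1,000 cells/well, read as ATP luminescence with CellTiter-Glo. Primary screens used 11-point (MIPE, 0.78 nM-46 µM) or 8-point (NPC, 0.59 nM-46 µM) final concentrations; follow-up screens used 11-point dilutions.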

Compound | Potency
CCOC(=O)[C@H](CCc1ccccc1)N[C@H]1CS[C@H](c2cccs2)CN(CC(=O)O)C1=O | active: 11.8 µM [sample A] and inactive [sample B]
Nc1nc(F)nc2c1ncn2[C@@H]1O[C@H](CO)[C@@H](O)[C@@H]1O | inactive [sample A] and active: 935 nM [sample B]
COc1ccc(C(=O)CC(=O)c2ccc(C(C)(C)C)cc2)cc1 | inactive [sample A] and active: 9.35 µM [sample B]
COC(=O)Nc1nc2ccc(S(=O)c3ccccc3)cc2[nH]1 (stereo not given) | active: 10.6 µM [sample A] and inactive [sample B]

Experiment: qHTS of pediatric cancer cell lines to identify multiple opportunities for drug repurposing: Primary screen for Saos-2 cells (AID 1347097); note: nearly all actives have a fitted effect of over 40% in size
Settings: Saos-2 viability, CellTiter-Glo ATP luminescence, 48 h; series mostly up to 46 µM
How it was run: as §1

Compound | Potency
CCOC(=O)[C@H](CCc1ccccc1)N[C@H]1CS[C@H](c2cccs2)CN(CC(=O)O)C1=O | active: 5.9 µM [sample A] and inactive [sample B]
CC(C)Cn1cnc2c(N)nc3ccccc3c21 | inactive [sample A] and active: 18.7 µM [sample B]
COc1ccc(C(=O)CC(=O)c2ccc(C(C)(C)C)cc2)cc1 | inactive [sample A] and active: 18.7 µM [sample B]

Experiment: qHTS of pediatric cancer cell lines to identify multiple opportunities for drug repurposing: Primary screen for SK-N-SH cells (AID 1347098); note: nearly all actives have a fitted effect of over 65% in size
Settings: SK-N-SH viability, CellTiter-Glo luminescence, 48 h; series mostly up to 57 µM
How it was run: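 Cells (500-1,000/well) rested 5 h, then received compounds for 48 h; metabolically active cells were measured by CellTiter-Glo luminescence. Final concentrations spanned up to 46 µM (MIPE, 11-point) or 0.59 nM-46 µM (NPC, 8-point) in primary screens, 11-point in follow-ups.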

Compound | Potency
CCOC(=O)[C@H](CCc1ccccc1)N[C@H]1CS[C@H](c2cccs2)CN(CC(=O)O)C1=O | active: 6.07 µM [sample A] and inactive [sample B]
COc1cc2c(Nc3ccc(Br)cc3F)ncnc2cc1OCC1CCN(C)CC1 | active: 24.1 µM [sample A] and inactive [sample B]
CCC(=O)O[C@]1(C(=O)SCF)[C@H](C)C[C@H]2[C@@H]3C[C@H](F)C4=CC(=O)C=C[C@]4(C)[C@@]3(F)[C@@H](O)C[C@@]21C | inactive [sample A] and active: 27.1 µM [sample B]
CC(C)C[C@H](NC(=O)[C@H](CCc1ccccc1)NC(=O)CN1CCOCC1)C(=O)N[C@@H](Cc1ccccc1)C(=O)N[C@@H](CC(C)C)C(=O)[C@@]1(C)CO1 | inactive [sample A] and active: 383 nM [sample B]
Nc1nc(F)nc2c1ncn2[C@@H]1O[C@H](CO)[C@@H](O)[C@@H]1O | inactive [sample A] and active: 681 nM [sample B]
CC(C)Cn1cnc2c(N)nc3ccccc3c21 | inactive [sample A] and active: 19.2 µM [sample B]
Cc1cc(NS(=O)(=O)c2ccc(N)cc2)no1 | inactive [sample A] and active: 5.41 µM [sample B]
CC(C(=O)O)c1ccc2c(c1)CC(=O)c1ccccc1S2 (stereo not given) | active: 24.1 µM [sample A] and inactive [sample B]
O=C(O)c1cc(=O)[nH]c(=O)[nH]1 | active: 38.6 µM [sample A] and inactive [sample B]
COc1ccc(C(=O)CC(=O)c2ccc(C(C)(C)C)cc2)cc1 | inactive [sample A] and active: 2.41 µM [sample B]
CNC1CCCN(c2c(F)cc3c(=O)c(C(=O)O)cn(C4CC4)c3c2OC)C1 (stereo not given) | active: 19.2 µM [sample A] and inactive [sample B]
Cc1ccnc2c1NC(=O)c1cccnc1N2C1CC1 | inactive [sample A] and active: 9.61 µM [sample B]
COc1cnc(NS(=O)(=O)c2ccc(N)cc2)nc1 | inactive [sample A] and active: 27.1 µM [sample B]
Cc1nnc(NS(=O)(=O)c2ccc(N)cc2)s1 | inactive [sample A] and active: 21.5 µM [sample B]

From PubChem BioAssay (NCATS)
